Results published in the supplement of paper PMC10369915.
The other results are listed elsewhere or left out. Rule as the data show it: active = 3.2 or more and inactive = the rest. Only a few entries rise above the background.

Legend:
Assay in all cases: enrichment score (SH2-bound / input frequency) (ratio); bacterial display of known human phosphotyrosine sites (pTyr-Var adds point mutants) read by sequencing; higher = stronger binding; tyrosines were phosphorylated by kinases first
Settings in all cases: peptide library: Human pTyr
SHP2 C-SH2 domain E139D = target: SHP2 C-SH2 domain E139D
[1] = target: SHP2 C-SH2 domain wild-type
SHP2 N-SH2 domain L43F = target: SHP2 N-SH2 domain L43F
SHP2 N-SH2 domain T42A = target: SHP2 N-SH2 domain T42A
SHP2 N-SH2 domain T52S = target: SHP2 N-SH2 domain T52S
[2] = target: SHP2 N-SH2 domain wild-type

Measured: enrichment score
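Also: displayed peptides selected on beads carrying the immobilized SH2 domain, with library peptides lacking any tyrosine serving as negative controls.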

B1: RL7_HUMAN_139 (peptide)
chain: MLRIVEPYIAWGYPN
inactive: SHP2 C-SH2 domain E139D 1.56 | [1] 1.45 | SHP2 N-SH2 domain L43F 1.34 | SHP2 N-SH2 domain T42A 1.48 | SHP2 N-SH2 domain T52S 1.62 | [2] 2.29

B2: RMD2_HUMAN_152 (peptide)
chain: EAESEGGYITANTDT
inactive: SHP2 C-SH2 domain E139D 0.981 | [1] 0.689 | SHP2 N-SH2 domain L43F 1.07 | SHP2 N-SH2 domain T42A 0.791 | SHP2 N-SH2 domain T52S 1.77 | [2] 1.2

B3: AT1B1_HUMAN_101_YA (peptide)
chain: DPKSAEAYVLNIVRF
inactive: SHP2 C-SH2 domain E139D 1.32 | [1] 1.14 | SHP2 N-SH2 domain L43F 1.26 | SHP2 N-SH2 domain T42A 1.4 | SHP2 N-SH2 domain T52S 1.39 | [2] 1.45

B4: ROA2_HUMAN_331_YA (peptide)
chain: SRNMGGPYGGGNAGP
inactive: SHP2 C-SH2 domain E139D 0.606 | [1] 0.369 | SHP2 N-SH2 domain L43F 0.531 | SHP2 N-SH2 domain T42A 0.381 | SHP2 N-SH2 domain T52S 0.533 | [2] 0.386

B5: ROA2_HUMAN_347_YA (peptide)
chain: GSGGSGGYGGRSRAG
inactive: SHP2 C-SH2 domain E139D 0.579 | [1] 0.634 | SHP2 N-SH2 domain L43F 0.571 | SHP2 N-SH2 domain T42A 0.518 | SHP2 N-SH2 domain T52S 0.974 | [2] 0.856

B6: ROA3_HUMAN_360 (peptide)
chain: GRSSGSPYGGGYGSG
inactive: SHP2 C-SH2 domain E139D 0.494 | [1] 0.496 | SHP2 N-SH2 domain L43F 0.525 | SHP2 N-SH2 domain T42A 0.473 | SHP2 N-SH2 domain T52S 0.562 | [2] 0.564

B7: ROA3_HUMAN_373 (peptide)
chain: SGGGSGGYGSRRFGG
inactive: SHP2 C-SH2 domain E139D 0.679 | [1] 0.542 | SHP2 N-SH2 domain L43F 0.612 | SHP2 N-SH2 domain T42A 0.716 | SHP2 N-SH2 domain T52S 0.546 | [2] 0.522

B8: ROBO1_HUMAN_1038 (peptide)
chain: MLPESTVYGDVDLSN
inactive: SHP2 C-SH2 domain E139D 0.579 | [1] 0.662 | SHP2 N-SH2 domain L43F 0.611 | SHP2 N-SH2 domain T42A 0.568 | SHP2 N-SH2 domain T52S 0.52 | [2] 0.734

B9: RON_HUMAN_1239 (peptide)
chain: DILDREYYSVQQHRH
inactive: SHP2 C-SH2 domain E139D 0.783 | [1] 0.715 | SHP2 N-SH2 domain L43F 0.694 | SHP2 N-SH2 domain T42A 0.787 | SHP2 N-SH2 domain T52S 0.632 | [2] 1.23

B10: ATG2B_HUMAN_1012 (peptide)
chain: AFKSAVHYDEESGSE
inactive: SHP2 C-SH2 domain E139D 0.872 | [1] 0.825 | SHP2 N-SH2 domain L43F 0.908 | SHP2 N-SH2 domain T42A 0.844 | SHP2 N-SH2 domain T52S 0.963 | [2] 0.823

B11: RON_HUMAN_1239_YA (peptide)
chain: DILDREAYSVQQHRH
inactive: SHP2 C-SH2 domain E139D 0.783 | [1] 0.547 | SHP2 N-SH2 domain L43F 0.669 | SHP2 N-SH2 domain T42A 0.668 | SHP2 N-SH2 domain T52S 0.581 | [2] 0.603

B12: RON_HUMAN_1360 (peptide)
chain: YVQLPATYMNLGPST
inactive: SHP2 C-SH2 domain E139D 0.906 | [1] 1.39 | SHP2 N-SH2 domain L43F 0.913 | SHP2 N-SH2 domain T42A 1.1 | SHP2 N-SH2 domain T52S 1.02 | [2] 1.16

B13: ROR1_HUMAN_646_YA (peptide)
chain: EIASADAYRVQSKSL
inactive: SHP2 C-SH2 domain E139D 0.644 | [1] 0.513 | SHP2 N-SH2 domain L43F 0.621 | SHP2 N-SH2 domain T42A 0.656 | SHP2 N-SH2 domain T52S 0.56 | [2] 0.68

B14: ROR2_HUMAN_646 (peptide)
chain: EVYAADYYKLLGNSL
inactive: SHP2 C-SH2 domain E139D 0.906 | [1] 0.653 | SHP2 N-SH2 domain L43F 0.725 | SHP2 N-SH2 domain T42A 0.791 | SHP2 N-SH2 domain T52S 0.882 | [2] 0.842

B15: ROS1_HUMAN_2274 (peptide)
chain: KNREGLNYMVLATEC
inactive: SHP2 C-SH2 domain E139D 1.47 | [1] 1.04 | SHP2 N-SH2 domain L43F 1.32 | SHP2 N-SH2 domain T42A 1.15 | SHP2 N-SH2 domain T52S 1.2 | [2] 1.32

B16: RPB1_HUMAN_1874 (peptide)
chain: YSPTSPKYSPTSPTY
inactive: SHP2 C-SH2 domain E139D 0.544 | [1] 0.802 | SHP2 N-SH2 domain L43F 0.465 | SHP2 N-SH2 domain T42A 0.969 | SHP2 N-SH2 domain T52S 0.59 | [2] 1.25

B17: ATP4A_HUMAN_10 (peptide)
chain: KAENYELYSVELGPG
inactive: SHP2 C-SH2 domain E139D 0.933 | [1] 0.751 | SHP2 N-SH2 domain L43F 0.651 | SHP2 N-SH2 domain T42A 0.606 | SHP2 N-SH2 domain T52S 0.794 | [2] 1.01

B18: RPS6KA3_HUMAN_483 (peptide)
chain: IITLKDVYDDGKYVY
inactive: SHP2 C-SH2 domain E139D 0.983 | [1] 1.28 | SHP2 N-SH2 domain L43F 1.14 | SHP2 N-SH2 domain T42A 0.923 | SHP2 N-SH2 domain T52S 0.979 | [2] 0.97

B19: RPS6KA3_HUMAN_644 (peptide)
chain: KFSLSGGYWNSVSDT
inactive: SHP2 C-SH2 domain E139D 1.58 | [1] 1.16 | SHP2 N-SH2 domain L43F 1.51 | SHP2 N-SH2 domain T42A 1.2 | SHP2 N-SH2 domain T52S 1.37 | [2] 1.72

B20: RRAS_HUMAN_66 (peptide)
chain: DPTIEDSYTKICSVD
inactive: SHP2 C-SH2 domain E139D 1.06 | [1] 0.819 | SHP2 N-SH2 domain L43F 0.938 | SHP2 N-SH2 domain T42A 0.738 | SHP2 N-SH2 domain T52S 0.921 | [2] 0.944

B21: RS10_HUMAN_12 (peptide)
chain: KKNRIAIYELLFKEG
active: [2] 3.49
inactive: SHP2 C-SH2 domain E139D 2.33 | [1] 2.28 | SHP2 N-SH2 domain L43F 2.72 | SHP2 N-SH2 domain T42A 2.21 | SHP2 N-SH2 domain T52S 2.56

B22: ATP4A_HUMAN_10_YA (peptide)
chain: KAENAELYSVELGPG
inactive: SHP2 C-SH2 domain E139D 0.779 | [1] 0.542 | SHP2 N-SH2 domain L43F 0.456 | SHP2 N-SH2 domain T42A 0.603 | SHP2 N-SH2 domain T52S 0.772 | [2] 0.667

B23: RU1C_HUMAN_8 (peptide)
chain: MPKFYCDYCDTYLTH
inactive: SHP2 C-SH2 domain E139D 1.35 | [1] 1.27 | SHP2 N-SH2 domain L43F 1.21 | SHP2 N-SH2 domain T42A 1.32 | SHP2 N-SH2 domain T52S 1.34 | [2] 1.47

B24: RU1C_HUMAN_8_YA (peptide)
chain: MPKFACDYCDTALTH
inactive: SHP2 C-SH2 domain E139D 0.682 | [1] 0.711 | SHP2 N-SH2 domain L43F 0.491 | SHP2 N-SH2 domain T42A 0.645 | SHP2 N-SH2 domain T52S 0.703 | [2] 0.821

B25: RU2B_HUMAN_151 (peptide)
chain: VPDYPPNYILFLNNL
inactive: SHP2 C-SH2 domain E139D 1.47 | [1] 1.38 | SHP2 N-SH2 domain L43F 1.46 | SHP2 N-SH2 domain T42A 1.35 | SHP2 N-SH2 domain T52S 1.34 | [2] 1.65

B26: RU2B_HUMAN_151_YA (peptide)
chain: VPDAPPNYILFLNNL
inactive: SHP2 C-SH2 domain E139D 1.34 | [1] 1.22 | SHP2 N-SH2 domain L43F 1.17 | SHP2 N-SH2 domain T42A 1.22 | SHP2 N-SH2 domain T52S 1.3 | [2] 1.3

B27: RUFY1_HUMAN_389 (peptide)
chain: TKVELETYKQTRQGL
inactive: SHP2 C-SH2 domain E139D 0.709 | [1] 0.72 | SHP2 N-SH2 domain L43F 0.714 | SHP2 N-SH2 domain T42A 0.741 | SHP2 N-SH2 domain T52S 0.665 | [2] 1.13

B28: RUFY2_HUMAN_336 (peptide)
chain: VETELQTYKHSRQGL
inactive: SHP2 C-SH2 domain E139D 0.601 | [1] 0.583 | SHP2 N-SH2 domain L43F 0.721 | SHP2 N-SH2 domain T42A 0.57 | SHP2 N-SH2 domain T52S 0.566 | [2] 0.587

B29: S4A4_HUMAN_30 (peptide)
chain: VEGHHTIYIGVHVPK
inactive: SHP2 C-SH2 domain E139D 1.38 | [1] 1.53 | SHP2 N-SH2 domain L43F 1.82 | SHP2 N-SH2 domain T42A 1.34 | SHP2 N-SH2 domain T52S 1.52 | [2] 1.35

B30: S6A17_HUMAN_377 (peptide)
chain: NAEKILGYLNTNVLS
inactive: SHP2 C-SH2 domain E139D 0.936 | [1] 0.79 | SHP2 N-SH2 domain L43F 0.885 | SHP2 N-SH2 domain T42A 0.824 | SHP2 N-SH2 domain T52S 0.787 | [2] 0.767

B31: SC6A7_HUMAN_591 (peptide)
chain: EENRTGMYVATLAGS
inactive: SHP2 C-SH2 domain E139D 0.531 | [1] 0.45 | SHP2 N-SH2 domain L43F 0.617 | SHP2 N-SH2 domain T42A 0.53 | SHP2 N-SH2 domain T52S 0.605 | [2] 0.48

B32: SCAM3_HUMAN_83 (peptide)
chain: SPTEPKNYGSYSTQA
inactive: SHP2 C-SH2 domain E139D 0.827 | [1] 0.591 | SHP2 N-SH2 domain L43F 0.525 | SHP2 N-SH2 domain T42A 0.673 | SHP2 N-SH2 domain T52S 0.555 | [2] 0.733

B33: SCIMP_HUMAN_131 (peptide)
chain: YIEPEDDYDDVEIPA
inactive: SHP2 C-SH2 domain E139D 1.1 | [1] 1.21 | SHP2 N-SH2 domain L43F 1.43 | SHP2 N-SH2 domain T42A 0.848 | SHP2 N-SH2 domain T52S 1.25 | [2] 1.81

B34: SCIMP_HUMAN_131_YA (peptide)
chain: AIEPEDDYDDVEIPA
inactive: SHP2 C-SH2 domain E139D 1.4 | [1] 1.26 | SHP2 N-SH2 domain L43F 1.19 | SHP2 N-SH2 domain T42A 1.12 | SHP2 N-SH2 domain T52S 1.41 | [2] 1.15

B35: SCN5A_HUMAN_1494_YA (peptide)
chain: MTEEQKKYANAMKKL
inactive: SHP2 C-SH2 domain E139D 1.1 | [1] 0.82 | SHP2 N-SH2 domain L43F 0.816 | SHP2 N-SH2 domain T42A 1.09 | SHP2 N-SH2 domain T52S 0.792 | [2] 0.889

B36: SCN5A_HUMAN_1495 (peptide)
chain: TEEQKKYYNAMKKLG
inactive: SHP2 C-SH2 domain E139D 1.27 | [1] 0.852 | SHP2 N-SH2 domain L43F 0.995 | SHP2 N-SH2 domain T42A 0.764 | SHP2 N-SH2 domain T52S 1.11 | [2] 0.778
